In all, about 52,000 compounds went through this assay and about 4,300 (8.3%) were called active. Rule as the data show it: active = survival mostly below about 52% (no sharp cut-off); inactive = mostly above about 56%. This is one part of the list.
test system: DeltatarO mutant; assay: growth inhibition of S. aureus wild type versus tarO mutant, primary screen, teichoic acid synthesis inhibitors, RN4220, OD600 (AID 463173); conditions: OD600, 18 h, stronger effect = lower value, screened at 18.75 µg/mL (by protocol)

Question: Which survival does the source give for `N/C(=N\OCC(=O)Nc1ccccc1)c1nonc1N` here?
Answer: Its survival is inactive: 92%.

Question: Which survival does the source give for `COc1ccc(CCn2c(=O)c3cccnc3n(CC(=O)Nc3ccc(C)cc3C)c2=O)cc1OC` here?
Answer: Its survival is inactive: 78%.

Question: With `CCN1C(=O)c2ccccc2S(=O)(=O)c2ccc(C(=O)NCc3ccccc3Cl)cc21` as the compound, how does the survival read?
Answer: The survival was inactive: 108%.

Question: For `COC(=O)CSc1ncc2c(n1)-c1ccccc1N(Cc1cccc(F)c1)S2(=O)=O`, which survival is on record?
Answer: The survival was inactive: 96%.

Question: How did the survival turn out when `CCc1cccc(C)c1NS(=O)(=O)c1c(C)nc2sccn2c1=O` was run?
Answer: Its survival is inactive: 64%.

Question: With `CCOC(=O)C1CCN(C(=O)CSc2n[nH]c(-c3ccc(F)cc3)n2)CC1` as the compound, how does the survival read?
Answer: The survival was inactive: 77%.

Question: How did the survival turn out when `COc1cccc(CNC(=O)c2c(C)oc3nc(C)nc(N4CCOCC4)c23)c1` was run?
Answer: The survival was inactive: 69%.

Question: How did the survival turn out when `Cc1cc(C(=O)C(=O)Nc2nnc(C(C)C)s2)c(C)n1-c1ccccc1` was run?
Answer: Its survival is inactive: 89%.

Question: With `CC(=O)c1cccc(NC(=O)C(C)n2c(=O)cc(-c3ccccc3)c3c(C)nn(C)c32)c1` (stereo not drawn) as the compound, how does the survival read?
Answer: Its survival is inactive: 102%.

Question: `COc1cccc(CNC(=O)c2ccc(NC(=O)N3CCCCc4ccccc43)cc2)c1OC` was tested. Which survival did it give?
Answer: The survival was inactive: 80%.

Question: For `CCOc1cccc(OCCCn2c(-c3ccc(Br)cc3)nc3ccccc3c2=O)c1`, which survival is on record?
Answer: Its survival is inactive: 64%.

Question: With `CCOc1ccc(-c2cc(-c3nc(-c4ccc(C)cc4)no3)[nH]n2)cc1` as the compound, how does the survival read?
Answer: The survival was inactive: 94%.

Question: How did the survival turn out when `CCOc1ccccc1-c1nc(SCC(=O)c2ccc(OC)c(Br)c2)n[nH]1` was run?
Answer: Its survival is inactive: 53%.

Question: For `CCc1ccc(NC(=O)C2CCCN(S(=O)(=O)c3c(C)noc3/C=C/N(C)C)C2)cc1` (stereo not drawn), which survival is on record?
Answer: Its survival is active: 42%.

Question: `Cc1ccc(Cl)cc1N1CCN(C(=O)CCCCCn2c(=O)[nH]c3ccccc3c2=O)CC1` was tested. Which survival did it give?
Answer: Its survival is inactive: 78%.

Question: `Cc1cc(C(=O)c2cccs2)c(N)s1` was tested. Which survival did it give?
Answer: Its survival is active: 33%.

Question: With `CC(C)OC(=O)c1cccnc1SCC(=O)Nc1ccc(C(F)(F)F)cc1Cl` as the compound, how does the survival read?
Answer: Its survival is inactive: 97%.

Question: For `CCOC(=O)c1c(-c2ccccc2)csc1NC(=O)c1cc(-c2ccc(C)c(F)c2)on1`, which survival is on record?
Answer: The survival was active: 52%.

Question: With `CCN(CC)S(=O)(=O)c1ccc2c(c1)N(CC(=O)N1CCN(c3ccc(Cl)cc3)CC1)C(=O)CO2` as the compound, how does the survival read?
Answer: The survival was inactive: 74%.

Question: With `O=C(NC1CCCCCC1)C1c2ccccc2C(=O)N1Cc1ccccc1Cl` (stereo not drawn) as the compound, how does the survival read?
Answer: Its survival is inactive: 96%.

Question: With `CC(C)(C)C(=O)NC1CCN(S(C)(=O)=O)CC1` as the compound, how does the survival read?
Answer: The survival was inactive: 95%.

Question: How did the survival turn out when `O=C(Cn1ccc2cc(S(=O)(=O)N3CCCCCC3)ccc21)NCCc1ccc(Cl)cc1` was run?
Answer: The survival was inactive: 81%.

Question: For `Cc1cc(-c2ccc(C)c(S(=O)(=O)Nc3cccc(C#N)c3)c2)on1`, which survival is on record?
Answer: Its survival is inactive: 89%.

Question: How did the survival turn out when `COc1ccc(/C=C/C(=O)Nc2ccc(Cl)c(Cl)c2)cc1` was run?
Answer: Its survival is inactive: 66%.

Question: With `O=C(COc1ccc(F)cc1)NCCc1nc2ccccc2[nH]1` as the compound, how does the survival read?
Answer: The survival was active: 57%.

Question: How did the survival turn out when `CCOc1ccc(CCNC(=O)c2c(C)oc3ncn(C)c(=O)c23)cc1` was run?
Answer: Its survival is inactive: 84%.

Question: With `O=C(NCCCO)Nc1ccc(Cl)cc1` as the compound, how does the survival read?
Answer: The survival was inactive: 66%.

Question: With `Cc1cnc(=O)[nH]c1SCC(=O)Nc1nc2ccccc2s1` as the compound, how does the survival read?
Answer: The survival was inactive: 83%.

Question: `Cc1ccc2oc(-c3cccc(NC(=O)c4sc5c([N+](=O)[O-])cccc5c4Cl)c3)nc2c1` was tested. Which survival did it give?
Answer: The survival was inactive: 67%.

Question: For `O=c1c2sccc2n(Cc2cc(=O)n3ccccc3n2)c(=O)n1-c1cccc(C(F)(F)F)c1`, which survival is on record?
Answer: The survival was inactive: 52%.

Question: With `Cc1ccc(-c2nnc(SCC(=O)NCc3ccccc3)nc2-c2ccc(C)cc2)cc1` as the compound, how does the survival read?
Answer: The survival was inactive: 99%.

Question: `COc1ccccc1N1CCN(C(=O)c2cnc(N3CCCCC3)c3ccccc23)CC1` was tested. Which survival did it give?
Answer: Its survival is inactive: 90%.

Question: `Cc1cc2c(cc3c(SCC(=O)Nc4cccc(Cl)c4C)nnc(C)n32)o1` was tested. Which survival did it give?
Answer: The survival was inactive: 102%.

Question: For `CCc1ccc(-n2c(=O)c3c(C)c(C(=O)N(C)C)sc3n(Cc3ccccc3F)c2=O)cc1`, which survival is on record?
Answer: Its survival is inactive: 71%.

Question: With `CCOc1ccccc1CNC(=O)CCn1ccc2cc(S(=O)(=O)N3CCCCC3)ccc21` as the compound, how does the survival read?
Answer: Its survival is inactive: 128%.

Question: How did the survival turn out when `O=C(CN(C(=O)CSc1nc2ccccc2o1)c1cccc(F)c1)NC1CCCCC1` was run?
Answer: The survival was inactive: 105%.

Question: With `N#CCCSc1nnc(-c2ccncc2)n1Cc1ccccc1` as the compound, how does the survival read?
Answer: Its survival is inactive: 99%.

Question: `Cn1c(=O)c2sccc2n2c(CCCC(=O)Nc3ccc(Oc4ccc(Cl)cc4)cc3)nnc12` was tested. Which survival did it give?
Answer: The survival was active: 24%.

Question: `Cc1ccc(-c2cc3c(N4CCN(c5cc(C)ccc5C)CC4)nccn3n2)cc1` was tested. Which survival did it give?
Answer: Its survival is inactive: 68%.

Question: With `CC(=O)N1c2c(cc(Br)cc2S(=O)(=O)N2CCN(c3ccccc3)CC2)CC1C` (stereo not drawn) as the compound, how does the survival read?
Answer: The survival was inactive: 79%.

Question: Which survival does the source give for `CC(C)CCOc1ccccc1Cn1c(=O)sc2ccccc21` here?
Answer: Its survival is active: 3%.

Question: For `Cc1ccccc1NS(=O)(=O)c1ccc2[nH]c3c(c2c1)CCCCC3`, which survival is on record?
Answer: Its survival is inactive: 89%.

Question: `Cc1ccc(Cl)cc1N1CCN(C(=O)c2ccc3nc(N4CCC(C)CC4)sc3c2)CC1` was tested. Which survival did it give?
Answer: The survival was active: 29%.

Reference: PubChem BioAssay AID463173 (ICCB-Longwood Screening Facility, Harvard Medical School, 2010)
